Reference: article PMC4336329 (PLoS ONE, 2015)
The campaign covered roughly 310,000 compounds. About 14,000 (4.5%) showed an effect of 50% or more. Effects have a minus sign here. The list shows a part of the results.

Biological target: human ether-à-go-go-related gene (hERG) potassium channel (human, UniProt Q12809)
Experiment: primary screen, population patch clamp on CHO cells stably expressing hERG
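Also: peak tail current of the secondary pulse compared with the same well before compound.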

Sequence of human ether-à-go-go-related gene (hERG) potassium channel (Q12809 whole entry, looked up): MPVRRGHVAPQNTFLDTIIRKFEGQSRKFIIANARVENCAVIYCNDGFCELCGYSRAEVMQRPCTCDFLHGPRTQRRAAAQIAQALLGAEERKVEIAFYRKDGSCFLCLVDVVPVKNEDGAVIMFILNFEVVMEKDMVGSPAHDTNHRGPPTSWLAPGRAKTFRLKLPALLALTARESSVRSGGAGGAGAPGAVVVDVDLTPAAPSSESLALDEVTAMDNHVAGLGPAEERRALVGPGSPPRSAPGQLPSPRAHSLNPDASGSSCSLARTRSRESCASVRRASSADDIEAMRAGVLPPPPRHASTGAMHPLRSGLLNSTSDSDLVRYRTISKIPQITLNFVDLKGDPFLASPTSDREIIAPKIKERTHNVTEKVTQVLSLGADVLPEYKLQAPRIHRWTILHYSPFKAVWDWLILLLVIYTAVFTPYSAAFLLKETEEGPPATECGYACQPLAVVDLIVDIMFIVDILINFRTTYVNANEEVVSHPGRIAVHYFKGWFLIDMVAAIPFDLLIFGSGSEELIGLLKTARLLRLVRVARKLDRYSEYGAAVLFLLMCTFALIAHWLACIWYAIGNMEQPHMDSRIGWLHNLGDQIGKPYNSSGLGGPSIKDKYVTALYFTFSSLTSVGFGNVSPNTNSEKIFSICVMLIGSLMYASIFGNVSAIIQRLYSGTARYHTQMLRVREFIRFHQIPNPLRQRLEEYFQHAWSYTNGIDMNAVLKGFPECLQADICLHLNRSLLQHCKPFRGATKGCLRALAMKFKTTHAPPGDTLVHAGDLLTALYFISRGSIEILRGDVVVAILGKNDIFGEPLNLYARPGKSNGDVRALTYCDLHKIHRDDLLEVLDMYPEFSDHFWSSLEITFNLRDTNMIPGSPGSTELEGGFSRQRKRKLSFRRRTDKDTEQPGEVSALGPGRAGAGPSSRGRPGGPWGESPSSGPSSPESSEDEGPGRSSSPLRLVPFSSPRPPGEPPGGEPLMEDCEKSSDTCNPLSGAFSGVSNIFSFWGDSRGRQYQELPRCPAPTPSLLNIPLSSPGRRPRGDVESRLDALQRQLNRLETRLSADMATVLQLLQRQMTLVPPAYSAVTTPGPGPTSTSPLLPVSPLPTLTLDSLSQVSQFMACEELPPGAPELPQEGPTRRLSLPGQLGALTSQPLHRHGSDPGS

Row | Compound | hERG current change (%, negative = inhibition) at 10uM [%]
1 | CCOC(=O)C1=C(C)OC(N)=C(C#N)C1c1ccc(O)c(OC)c1 (stereo not drawn) | 2.39
2 | CCC1CCCCN1C(=O)CCc1nnc(Cc2cc(OC)ccc2OC)o1 (stereo not drawn) | 11.9
3 | O=[N+]([O-])c1ccc(CNc2ccc(Cl)cc2)s1 | -9.66
4 | Cc1cccc(N2CCN(C(=S)c3ccccc3)CC2)c1 | 9.16
5 | O=C(Nc1cccc(-c2ccc(N3CCCCC3)nn2)c1)c1ccc(Br)o1 | -12.4
6 | COc1ccc2[nH]c3c(c2c1)CCN1C(=O)N([C@@H](C)C(=O)NCCc2ccc(F)cc2)C(=O)[C@]31C | -17.9
7 | CCn1c(SCC(=O)N(C)CC(=O)Nc2ccc(OC)cc2)nnc1-c1ccco1 | 6.1
8 | Cc1ccc2c(CC(=O)NNC(=O)c3ccccc3)coc2c1 | 1.23
9 | COc1ccccc1NS(=O)(=O)c1ccc(N/N=C(\C)C(C)C)c([N+](=O)[O-])c1 | 9.29
10 | CC(=O)Oc1ccc2c(=O)c(/C=N/c3cc(=O)[nH]c(=S)[nH]3)coc2c1 | -5.74
11 | CCOC(=O)c1c(NC(=O)CSc2nnc(C)c(=O)[nH]2)sc(C)c1-c1ccc(C)cc1 | -2.13
12 | CCOC(=O)c1c(S(=O)(=O)Nc2ccccc2OCC)c(C)n(C)c1C | -5.04
13 | NC(=O)NC(=O)COC(=O)CN1C(=O)C2CCCCC2C1=O (stereo not drawn) | 1.18
14 | CCOC(=O)c1cc(NC(=O)N(C(C)C)C(C)C)c(C)nc1C | -4.36
15 | COc1ccc(OC)c(NC(=O)COC(=O)CNC(=O)c2ccc(OC)c(OC)c2)c1 | -14.6
16 | Cc1ccnc(NS(=O)(=O)c2ccc3ccccc3c2)n1 | 14.4
17 | CCOc1ccc(NC(=O)c2ccc(F)cc2F)cc1 | 10.8
18 | CC(/C=N/NC(=O)Cn1nccc1C)=C\c1ccc(C(C)C)cc1 | -4.51
19 | COc1cc2[nH]c(=O)c(C(=O)NCCCN3CCCCC3)c(O)c2cc1OC.Cl | -13.7
20 | O=S(=O)(NCc1cn2ccsc2n1)c1cccs1 | 15.6
21 | Cc1nc2cc(-c3cccs3)[nH]n2c(=O)c1C | 11.7
22 | COCC(=O)Nc1cccc(Br)c1 | -1.19

Row | Compound | hERG current change (%, negative = inhibition) at 10uM [%]
23 | C=CCOC(=O)C(=O)/C=C/c1csc2ccccc12 | 20.7
24 | CCCCC(Br)C(=O)Nc1ccc(S(=O)(=O)Nc2cc(C)nc(C)n2)cc1 (stereo not drawn) | 8.47
25 | FC(F)(F)c1cc(Oc2ccc(Cl)cc2)ncc1-c1nnc(-c2ccc(Cl)cc2)o1 | 5.81
26 | COc1ccc(CCN2C(=NC(=O)CCC(=O)O)SC3CS(=O)(=O)CC32)cc1OC (stereo not drawn) | -3.16
27 | Cc1cc(O)ccc1N/C=C/c1onc(C)c1[N+](=O)[O-] | 29.9
28 | CCOc1ccc(C=O)cc1CN1CCCCC1.Cl | -14.7
29 | CCC1CN(C(=O)NCc2cccc(OC)c2)c2ccccc2O1 (stereo not drawn) | -11.1
30 | Cn1c(NCc2ccco2)nc2c1c(=O)n(Cc1ccc(Cl)cc1Cl)c(=O)n2C | 3.42
31 | O=S(=O)(c1cccc(-c2nnc(SCc3ccc(Cl)cc3)o2)c1)N1CCCCC1 | 10.7
32 | COc1ccc2c(=O)c3c(=O)n(Cc4ccco4)c(C(C)C)nc3oc2c1 | 5.12
33 | CCN=C1S/C(=C\c2cc(Br)ccc2OCC(=O)OCC)C(=O)N1CC | -0.0973
34 | COc1ccc(CCC(C)NCc2ccc(F)cc2)cc1 (stereo not drawn) | -44.8
35 | COc1ccc(-n2nnnc2SC(C)C(N)=O)cc1 (stereo not drawn) | 8.68
36 | CCCN(CCC)CCCNC(=S)Nc1ccc2nc(N3CCN(CC)CC3)cc(C)c2c1 | -3.08
37 | O=C1Cc2ccccc2C(c2c(Cl)cccc2Cl)N1 (stereo not drawn) | -1.82
38 | COC(=O)Cn1cc([N+](=O)[O-])nc1C | 32.3
39 | Nn1c(SCC(=O)Nc2ccc3c(c2)OCCO3)nnc1-c1cccnc1 | 0.314
40 | COc1ccc(CC(=O)N2CCN(C(=O)c3ccco3)CC2)cc1 | 10.9
41 | COc1ccc(C)cc1NC(=O)CO/N=C(\N)CC(=O)Nc1ccccc1OC | -3.14
42 | Cc1ccc(NC(=S)N(CCCN(C)C)Cc2cc3cc4c(cc3[nH]c2=O)OCO4)cc1 | -41.7
43 | COc1cccc(CCN2CCC(CNS(=O)(=O)c3cc(-c4cc(C)no4)ccc3C)CC2)c1 | -77.2
44 | NC(=O)C1(N2CCCCC2)CCN(c2nc(-c3ccc(Br)cc3)cs2)CC1 | -7.11

Row | Compound | hERG current change (%, negative = inhibition) at 10uM [%]
45 | O=C(CNC(=O)C12CC3CC(CC(C3)C1)C2)N1CCN(S(=O)(=O)/C=C/c2ccccc2)CC1 | -10.5
46 | Cc1ccc(-c2nc3c(c(=O)c4ccccc4n3C)c(=O)n2-c2ccc(F)cc2)cc1 | 14.2
47 | O=C(/C=C/c1ccccc1)/C=C/c1ccccc1 | 8.17
48 | O=C(O)c1ccc2c(c1)S(=O)(=O)c1cc(Cl)ccc1C2=O | 19.5
49 | O=C(NC(=S)Nc1cccc(C(F)(F)F)c1)c1csnn1 | 31.4
50 | O=C(c1ccco1)N1CCN(C(=O)C2c3ccccc3Oc3ccccc32)CC1 | 17.5
51 | Cc1ccc(CS(=O)(=O)CCC(=O)NCCCN2CCCC2=O)cc1 | 14.7
52 | Cc1cc(NC(=O)c2cc([N+](=O)[O-])cc([N+](=O)[O-])c2C)no1 | 15.7
53 | c1ccc2c(c1)CCCN2Cc1nnnn1CC1CCCO1 (stereo not drawn) | 7.06
54 | COc1ccc(N(C(=O)c2cccc([N+](=O)[O-])c2)S(=O)(=O)c2cccs2)cc1 | -1.14
55 | CCN(CC)C(=O)CSc1nnc(CCN)o1.Cl | 18.5
56 | COc1ccc(NC(=O)c2cc3c(COC(C)=O)cnc(C)c3oc2=Nc2cccc(C(=O)O)c2)c(OC)c1 | 18.8
57 | CCOC(=O)c1ccc(Oc2nc(SC)nc(N(C)C)n2)cc1 | -20.7
58 | O=C(O)C(F)(F)F.O=C1C(Cc2ccccc2)Nc2ncnc(N3CCc4ccccc4C3)c2N1Cc1ccc(Br)cc1 (stereo not drawn) | 19.6
59 | c1ccc(Cn2nnnc2C(c2ccncc2)N2CCOCC2)cc1 (stereo not drawn) | -2.65
60 | Cc1ccc(Nc2nc(Cl)nc(NC(C)(C)C)n2)cc1 | -0.766
61 | O=[N+]([O-])c1cc([N+](=O)[O-])c(Oc2cc(Cl)ccc2Cl)cc1NC1CCCCCCC1 | 26.5
62 | Cc1cc(Cl)ccc1OCc1nnc2n1CCCCC2 | -26.1
63 | Cc1ccccc1CCN(CC(=O)NC1CCCCC1)C(=O)c1csnn1 | 19.3
64 | CC(C)(C)c1ccc(NC(=O)CSc2nnc(-c3n[nH]c4ccccc34)o2)cc1 | -13.9
65 | CC(=O)Cn1ncc(N(C)Cc2ccccc2)c(Cl)c1=O | 8.18
66 | CC(C)n1ncc2c(C(=O)Nc3ccc(S(C)(=O)=O)cc3)cc(C3CC3)nc21 | 17

Row | Compound | hERG current change (%, negative = inhibition) at 10uM [%]
67 | CC(CCc1ccccc1)NC(=O)CN1CCN(c2ccc(O)cc2)CC1 (stereo not drawn) | -37.1
68 | C=CCN(CC=C)CCCOc1ccc(C)cc1OC.O=C(O)C(=O)O | -45.1
69 | CC(=O)c1cccc(N(CC(=O)NCCc2ccccc2)C(=O)c2csnn2)c1 | -3.71
70 | O=C(CSc1nccc(=O)[nH]1)Nc1ccccc1Sc1ccccc1 | -4.69
71 | O=C(Nc1cccc(F)c1)c1ccc(Cn2cc([N+](=O)[O-])cn2)o1 | -47.8
72 | CC1(C)NC(=O)N(CCCCOc2ccc(Cl)cc2)C1=O | -20.8
73 | O=S(=O)(Cc1ccccc1)C1CCCCC1O (stereo not drawn) | 13.2
74 | CCn1cc(C(=O)N2CCN(Cc3ccc4c(c3)OCO4)CC2)c2cc(OC)c(OC)cc2c1=O | -22.7
75 | Cc1cccc(C)c1N=C1NN=C(c2ccccc2F)CS1 | -8.23
76 | COc1ccccc1NC(=O)c1ccc2c(c1)N(CC(=O)NC(C)(C)C)C(=O)C(C)(C)O2 | 4.47
77 | Cc1c(Cl)cccc1N=C1SCCN1C(=O)CN1C(=O)NC2(CCCC2)C1=O | -16.5
78 | COc1cc(NC(=O)CS(=O)(=O)c2ccccc2)cc(OC)c1OC | 11.3
79 | Cc1ccccc1OCc1nnc2c3cnn(C)c3ncn12 | -5.21
80 | Cc1[nH]c2ccccc2c1/C=N/Nc1nc2ccccc2[nH]1 | 8.33
81 | O=C(CN1CCN(S(=O)(=O)c2ccc(Cl)s2)CC1)NCc1ccc(Cl)cc1 | -7.53
82 | CCc1c(O)nc(SCC(=O)Nc2nc3ccccc3s2)n(C2CCCCC2)c1=O | 0.434
83 | COCCn1c(=NC(=O)CCS(=O)(=O)c2ccccc2)sc2c(OC)ccc(OC)c21 | 5.38
84 | COc1ccc(N2CCN(S(=O)(=O)c3c(C)[nH]c(C)c3C(=O)N3CCCC3)CC2)cc1 | 7.12
85 | Cc1cc(C)c(C(=O)N2CCCC(CNS(=O)(=O)N(C)C)C2)o1 (stereo not drawn) | 15.8
86 | O=C(Nc1cccc([N+](=O)[O-])c1)c1cnccn1 | -3.76
87 | CCCOc1cc(C)c(S(=O)(=O)n2ccc(C)n2)cc1C | -7.88
